# PubChem BioAssay AID1347417 (National Center for Advancing Translational Sciences (NCATS), 2020)
# The whole screen tested about 120,000 compounds, of which about 5,300 (4.4%) were called active. Inconclusive results, whose numbers are uncertain, are shown with a selection of clear calls. Calls come from the whole dose curve; as a rule, active = well fitted inhibition curve with a large enough effect; inconclusive = small, poorly fitted or top-dose-only effect; inactive = no such curve, though single readings can be large or run the other way. A potency beside an inconclusive call is a rough fit, not a confirmed value.
# Experiment: qHTS Primary assay for Inhibitors of Plasmodium falciparum Dd2 growth in vitro; note: nearly all actives have a fitted effect of over 65% in size
# Settings: P. falciparum Dd2 growth, SYBR Green, 72 h; series mostly up to 28.9 µM
# Outline: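 Infected erythrocytes (Dd2, 0.3% parasitemia, 2.5% hematocrit final) are added to compound in RPMI-1640/Albumax II medium, grown 72 h at 37C in low oxygen, then lysed with saponin/Triton-X containing SYBR Green and read by fluorescence.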
# Potency is the fitted concentration of half-maximal effect; tags give direction and shape of the fitted curve.
row,Compound,Potency
1,COCC1CN(S(=O)(=O)c2ccc(F)c(Cl)c2)CC12CCNCC2 (stereo unspecified),"inconclusive: 3.98 µM [inhibitor, single point]"
2,COCC1CN(C2CCC2)CC12CCN(Cc1cccc(OC)c1OC)CC2 (stereo unspecified),"inconclusive: 2.24 µM [inhibitor, partial curve, poor fit]"
3,Cc1oc2c(c1C(=O)N(C)C)CN(C(=O)CCc1ccccc1)CC2,active: 6.31 µM
4,O=C(c1ccccc1F)N1CCC2(CC1)CC(N(Cc1ccccc1)C1CC1)CCO2 (stereo unspecified),"inconclusive: 5.62 µM [inhibitor, partial curve]"
5,COc1cccc(N2C(=O)NC(=NC3CCCCC3)C23CCN(C(=O)c2ccc(C(F)(F)F)cc2)CC3)c1,"inconclusive: 17.8 µM [inhibitor, single point]"
6,CCCCCn1c(CCNC(=O)c2cccc(C)c2)nc2ccccc21,"inconclusive: 10 µM [inhibitor, single point]"
7,COc1ccc(-c2nn(-c3ccccc3C)cc2CN2CCN(C)C(=O)[C@@H]2C)cc1F,inactive
8,COc1ccc2c(c1)Cc1sc(NC(=O)c3cccc(Br)c3)nc1-2,"inconclusive: 12.6 µM [inhibitor, single point]"
9,COc1ccc(CN2CCCCC23Cc2ccccc2CNC3=O)c(OC)c1 (stereo unspecified),"inconclusive: 7.08 µM [inhibitor, partial curve, poor fit]"
10,CC1CN(C(=O)N2CCC(C(=O)NCCCc3ccccc3)CC2)c2ccccc2O1 (stereo unspecified),"inconclusive: 11.2 µM [inhibitor, partial curve, poor fit]"
11,O=C1C(N2CCN(S(=O)(=O)c3ccc(Cl)s3)CC2)CCN1Cc1ccccn1 (stereo unspecified),"inconclusive: 7.94 µM [inhibitor, partial curve, poor fit]"
12,Cc1cc(Cl)ccc1S(=O)(=O)N1CCCC(Cn2c(C)nc3cccnc32)C1 (stereo unspecified),"inconclusive: 17.8 µM [inhibitor, single point]"
13,Cc1ccc(CNC(=O)CN2C(=O)C3(SCC(=O)N3c3ccc(F)cc3)c3ccccc32)cc1 (stereo unspecified),inactive
14,COc1cccc(COC2CN(C(=O)CCc3cccs3)CC(=O)N(Cc3ccccn3)C2)c1 (stereo unspecified),inactive
15,CC(=O)N1CCC(NC2(Cc3cc(-c4cccc(O)c4)on3)COC2)CC1,inactive
16,Cc1ccc(S(=O)(=O)NC[C@H]2O[C@@H](CC(=O)N3CCN(c4ccc(F)cc4)CC3)[C@H](O)[C@@H]2O)cc1,"inconclusive: 7.08 µM [inhibitor, partial curve, poor fit]"
17,Cc1cnc(C(=O)NCC23CCC=C2N(C)C(=O)CC3)cn1 (stereo unspecified),"inconclusive: 3.55 µM [inhibitor, single point]"
18,O=C(CN1C(=O)NC(c2ccccc2Cl)C2=C1COC2=O)Nc1cccc(C(F)(F)F)c1 (stereo unspecified),"inconclusive: 12.6 µM [inhibitor, single point]"
19,COc1cc(OC)cc(C(=O)Nc2ccc3nc(Nc4cccc(C(F)(F)F)c4)cc(C)c3c2)c1,"inconclusive: 3.16 µM [inhibitor, full curve, poor fit]"
20,O=C(NCC(c1ccc(Cl)cc1)N1CCCCC1)c1ccccc1F (stereo unspecified),"inconclusive: 3.98 µM [inhibitor, partial curve, poor fit]"
21,COC(=O)C(NC(=O)CCc1c(C)nc2c(c(C)nn2-c2ccccc2)c1C)C(C)C (stereo unspecified),"inconclusive: 17.8 µM [inhibitor, single point]"

row,Compound,Potency
1,CC(=O)N1C[C@@H]2CCCN3CCC[C@@H]([C@H]23)[C@H]1CCCC(=O)N1CCN(c2ccccn2)CC1,inactive
2,C[S+](=O)([O-])c1ccc(-c2nc(C(=O)NC3CC3)n3ccccc23)cc1,inactive
3,Cc1nnn2c(C(=O)Nc3ccc(Cl)cc3Cl)cccc12,inactive
4,Cc1cn2nc(C(=O)NCCc3cccs3)cc2c(N2CCCC2)n1,active: 7.08 µM
5,CN(Cc1ccccc1)Cc1cc(C[C@@H]2C[C@H](NC(=O)C3CC3)C2(C)C)no1,"inconclusive: 5.62 µM [inhibitor, single point]"
6,CCc1noc(-c2cccn3c(CNC(=O)c4cccc(N(C)C)c4)nnc23)n1,"inconclusive: 1.58 µM [inhibitor, full curve]"
7,CC(=O)N1CCc2c(sc3c2c(=O)n(CCc2ccccc2)c(=O)n3CC(=O)Nc2ccc(C)c(F)c2)C1,"inconclusive: 17.8 µM [inhibitor, single point]"
8,COc1cccc2c1Oc1ncccc1N(c1ccc(C(=O)NCc3ccccc3Cl)s1)C2,"inconclusive: 17.8 µM [inhibitor, single point]"
9,Cc1ccn2c(Nc3ccc4c(c3)OCCO4)c(-c3cccs3)nc2c1,"inconclusive: 17.8 µM [inhibitor, single point]"
10,Cc1ccc(Cl)cc1NC(c1ccc(F)cc1)c1nnc(-c2ccccc2)o1 (stereo unspecified),active: 12.6 µM
11,O=C(O)c1cccc(C(=O)N2C[C@@H]3C[C@H](C2)c2ccc(NC(=O)c4ccco4)c(=O)n2C3)c1,inactive
12,COc1ccc(Nc2cc(C)nc3c(C)c(C)ccc23)cc1,inactive
13,CCc1ccc(C2CC(=O)c3c([nH]c(C(=O)OCCOc4ccccc4)c3C)C2)cc1 (stereo unspecified),active: 5.01 µM
14,CC(C)Cn1c(=O)c2ccccc2n2c(CCC(=O)N3CCN(c4ccccc4)CC3)nnc12,"inconclusive: 17.8 µM [inhibitor, single point]"
15,CC(C)c1ccc(C2c3c(-c4ccccc4O)n[nH]c3C(=O)N2Cc2ccncc2)cc1 (stereo unspecified),active: 12.6 µM
16,COc1ccc(NC(=O)Cn2c(=O)n(CCCC(=O)NCCc3ccc(C)cc3)c(=O)c3ccccc32)cc1Cl,"inconclusive: 11.2 µM [inhibitor, single point]"
17,COc1ccc(N2CCN(c3ncnc4onc(-c5ccc(F)cc5)c34)CC2)cc1,"inconclusive: 11.2 µM [inhibitor, single point]"
18,O=C(C1CC1)N1CCN(C2CCN(Cc3cccnc3)C2=O)CC1 (stereo unspecified),inactive
19,Cn1nc(-c2ccco2)cc1[C@H]1CN2CC[C@H]1C[C@@H]2CNC(=O)c1cccs1,"inconclusive: 14.1 µM [inhibitor, partial curve]"
20,COc1ccc(-c2noc(CC3CCN(C(=O)Cc4cccc(C)c4)CC3)n2)cc1,"inconclusive: 17.8 µM [inhibitor, single point]"
